Some of the results follow. The energies were worked out here from pooled read counts, against the library average; single values are noisy.
Each sequence was assayed against T1, Pho4 (S. cerevisiae) (UniProt P07270) (assay: relative binding free energy (BET-seq); higher = weaker binding). Settings: reference: library average.
T1 sequence: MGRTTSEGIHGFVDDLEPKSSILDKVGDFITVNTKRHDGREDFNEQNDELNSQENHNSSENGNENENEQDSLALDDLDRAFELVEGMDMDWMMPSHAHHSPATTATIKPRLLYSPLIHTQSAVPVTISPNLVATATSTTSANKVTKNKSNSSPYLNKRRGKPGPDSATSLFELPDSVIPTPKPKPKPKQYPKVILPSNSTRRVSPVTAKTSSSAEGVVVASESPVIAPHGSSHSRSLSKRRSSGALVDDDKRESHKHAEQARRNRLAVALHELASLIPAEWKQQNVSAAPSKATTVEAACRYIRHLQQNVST

Relative binding free energy, -0.27 kcal/mol:
TAGGGCACGTGGGTCT

Relative binding free energy, -0.08 kcal/mol:
TGTAGCACGTGGTGAG
AAAAGCACGTGCGGTG
TGCTGCACGTGTATGG

Relative binding free energy, -0.14 kcal/mol:
TCTGTCACGTGGGGTT

Relative binding free energy, 0.01 kcal/mol:
TTCTGCACGTGTATTT
TCATACACGTGGTTGG
CTGGGCACGTGTGAGC
CGTGGCACGTGTTAAT
GACGGCACGTGTTGGC
TAGGTCACGTGTATCT

Relative binding free energy, 0.44 kcal/mol:
GAGAACACGTGAGTGA
GCTTTCACGTGTGGCA

Relative binding free energy, 0.13 kcal/mol:
TCGAACACGTGTAGGG

Relative binding free energy, 0.17 kcal/mol:
TATTACACGTGTGGCG

Relative binding free energy, 0.45 kcal/mol:
GAGTTCACGTGATGTT

Relative binding free energy, 0.07 kcal/mol:
TAAGCCACGTGTAGTT
ATTGGCACGTGAGGTA
AGTCTCACGTGTTGGC
CGGAGCACGTGTGATG

Relative binding free energy, -0.17 kcal/mol:
CGGGGCACGTGCTGTT
AGTCGCACGTGGTTAT

Relative binding free energy, -0.18 kcal/mol:
TGGGCCACGTGGAGCG
TAGAGCACGTGGTGTG
AGGTACACGTGTTTGA

Relative binding free energy, -0.01 kcal/mol:
GGGACCACGTGGTTTT
GGGGGCACGTGATGTA
CATGTCACGTGGGCAT
GGTGCCACGTGATGTG
GAGGGCACGTGCAGCG

Relative binding free energy, -0.2 kcal/mol:
AGGCGCACGTGGCTGT
TTAACCACGTGGGGTG

Relative binding free energy, 0.26 kcal/mol:
GATCTCACGTGGGTTT
CTGTTCACGTGCGTAT
TAGGTCACGTGATGGT
TTTTTCACGTGAGCTG

Relative binding free energy, 0.1 kcal/mol:
GTTGACACGTGGGAAG

Relative binding free energy, 0.2 kcal/mol:
GTGTACACGTGTTAAA
AGGATCACGTGTGGTC
TGACGCACGTGAGGGT
GTTAACACGTGATAAG
TATTTCACGTGGGACG
TGCTGCACGTGAGTTG

Relative binding free energy, 0.15 kcal/mol:
GAGTACACGTGTATAT
CGGGGCACGTGAGCAG
GATGTCACGTGTATCG
GAAATCACGTGGGGAA
GACGACACGTGTTGGG
TCGTTCACGTGGTGTA

Relative binding free energy, -0.05 kcal/mol:
TGTAACACGTGCTGGT
GAGCGCACGTGGTTTT
ACGTGCACGTGTGCGG
AGATACACGTGGGGCT
ACGCGCACGTGTTGGG
GGTCGCACGTGCGTAG

Relative binding free energy, 0.37 kcal/mol:
AGTATCACGTGAATTA
AGGCTCACGTGTTAAG
GGTTGCACGTGAGGGT
TGTATCACGTGAATGC

Relative binding free energy, 0.05 kcal/mol:
CGTGTCACGTGTATAT
AGTAGCACGTGATAGT

Relative binding free energy, 0.42 kcal/mol:
GTTATCACGTGAGAAG
AATTTCACGTGACGGG
TATTTCACGTGTTCGG

Relative binding free energy, 0.12 kcal/mol:
TTGGACACGTGTGGCG
TGTGACACGTGAATGT
GTCGTCACGTGTATTA

Relative binding free energy, 0.28 kcal/mol:
TGAGTCACGTGTTCTA
GGTCGCACGTGAAGGA
TCATTCACGTGTGAAT
GGTTTCACGTGTAAGC
GGCTTCACGTGCGGAG
TGGTTCACGTGAAGGC

Relative binding free energy, 0.41 kcal/mol:
ATTTTCACGTGAGGGT
TGTTCCACGTGAAATG
TTCTTCACGTGAGGGA

Relative binding free energy, 0.11 kcal/mol:
AAGGTCACGTGCTATT
TGAATCACGTGCGTTT
ATATGCACGTGATTAA
GAATACACGTGTTATT
AGGATCACGTGGTATG
GGAGACACGTGATTGT

Relative binding free energy, 0.33 kcal/mol:
AGCCTCACGTGAGGGT
TATTTCACGTGAGTGG
AAGATCACGTGTAAGT

Relative binding free energy, 0.38 kcal/mol:
GGTTTCACGTGATTAA

Relative binding free energy, -0.11 kcal/mol:
ATCTGCACGTGGGGGA
AGGACCACGTGGAGGG
CGGGTCACGTGGTCAG
GGCTCCACGTGGTGGG

Relative binding free energy, -0.02 kcal/mol:
GTGCACACGTGTGAGG
TATGCCACGTGTTTTG
TCGAGCACGTGTTGGG
GCGGGCACGTGACGGT
GTTCGCACGTGGTCGG

Relative binding free energy, 0.55 kcal/mol:
GCGCTCACGTGAGGTG

Relative binding free energy, -0.06 kcal/mol:
GTTGGCACGTGCTGAG
TATAACACGTGTCGTT

Relative binding free energy, 0.24 kcal/mol:
CGTTTCACGTGCTGTA
GTGTGCACGTGAAGCG
AGTTTCACGTGTTAGC
TATTTCACGTGCATGA
CTCTTCACGTGTGTTA
AATTACACGTGGAATT

Relative binding free energy, 0.23 kcal/mol:
TGCTGCACGTGAGCTG
CTTTTCACGTGTGTAG
GCTGTCACGTGAGTGT
TGTTTCACGTGCGGCT

Relative binding free energy, 0.29 kcal/mol:
TGAGTCACGTGATGTG
GTCTTCACGTGCATGT
TTGTTCACGTGTTGCA

Relative binding free energy, 0.09 kcal/mol:
TGATTCACGTGTGTCG
CGTATCACGTGGTGGG
GTACGCACGTGATGGT
GTATGCACGTGATCAG

Relative binding free energy, -0.13 kcal/mol:
TCGGCCACGTGTGTGT
ACGGGCACGTGGATGT
AGGGGCACGTGCATTT

Relative binding free energy, -0.15 kcal/mol:
TGCTGCACGTGGGGTA
GTGAGCACGTGGTATA
TTGGGCACGTGGTTTG
GGTAGCACGTGCCTGG
TTTAGCACGTGTTACT

Relative binding free energy, 0.14 kcal/mol:
TTGGTCACGTGTGGCG
GTGGACACGTGATGGG
TATTTCACGTGCAGAT
GATCACACGTGTGGGG

Relative binding free energy, -0.23 kcal/mol:
TGTCGCACGTGGTCTT
AATGCCACGTGGGGGA
CGTCGCACGTGGGTGG

Relative binding free energy, 0.02 kcal/mol:
TATTACACGTGCAGTG
AGGCACACGTGTGGGC
TGGGCCACGTGGGAGC
GATGACACGTGGGGAA

Relative binding free energy, -0.22 kcal/mol:
TGCGGCACGTGCGGTG

Relative binding free energy, -0.09 kcal/mol:
GTCCGCACGTGTTGGG
AGTGTCACGTGGGTCG

Relative binding free energy, 0.22 kcal/mol:
TCGTACACGTGATGGG

Relative binding free energy, 0.36 kcal/mol:
GGGATCACGTGATGTA
GTTTTCACGTGATGGG

Relative binding free energy, 0.04 kcal/mol:
AGCGGCACGTGGAGAA
TCCGGCACGTGTGGCG
ATTGGCACGTGACATA
TAGTGCACGTGATCGG
TTTGTCACGTGGCACT
GTAGTCACGTGGGCCT
GGTAGCACGTGTAGTC
GAGGTCACGTGGGTGT

Relative binding free energy, 0.46 kcal/mol:
TGGTTCACGTGTCCGG

Relative binding free energy, 0.35 kcal/mol:
TTTTTCACGTGGAGAA

Relative binding free energy, 0.34 kcal/mol:
TTCTTCACGTGTCAGT

Relative binding free energy, -0.1 kcal/mol:
TATTGCACGTGGCGCT
GTTTGCACGTGGAGCT
TGGAGCACGTGTCGTG

Relative binding free energy, 0.16 kcal/mol:
TTAAGCACGTGAGATT
TTATACACGTGATGGT
GTACGCACGTGTGAAG
TATGTCACGTGTTTGT
TAAGACACGTGGAGGA

Relative binding free energy, 0.4 kcal/mol:
TGCTTCACGTGAGGGT

Relative binding free energy, 0.19 kcal/mol:
GGTTTCACGTGCGCGT
TTGGGCACGTGAGTGG
AGTATCACGTGTTTTC
TGAATCACGTGTACAG
TGGATCACGTGGTGCC
AGTCACACGTGATTTT
GCATGCACGTGAGGGA
GATTTCACGTGGGATA

Relative binding free energy, -0.07 kcal/mol:
ATTAGCACGTGGTGAA
CGGCACACGTGGTGTG
TTTCGCACGTGGTGAT
CTGGACACGTGGTGTA

Relative binding free energy, -0.12 kcal/mol:
GGGGCCACGTGGCAGT
AGGGCCACGTGTTTAA

Relative binding free energy, 0.39 kcal/mol:
GGTTTCACGTGACTGG
GGCGACACGTGATGGA

Relative binding free energy, 0 kcal/mol:
TGTTCCACGTGCTGTT
TTTGACACGTGGCAGG
GTTCGCACGTGTGGAG
TATGTCACGTGCTTTA
GGGGCCACGTGGTATT
AATCGCACGTGTTATT
ATTGTCACGTGGGGCT

Relative binding free energy, 0.06 kcal/mol:
CTAGTCACGTGTGTTG
TGAGACACGTGTGGCG
GTGGTCACGTGGCATA
AGGCGCACGTGAGTAG

Relative binding free energy, 0.08 kcal/mol:
CAGTACACGTGGTAGT
GTTAGCACGTGAGGAA
TGTGTCACGTGGAACG

Relative binding free energy, 0.18 kcal/mol:
TTTCTCACGTGTTTAG
GGTTCCACGTGTGTGA
GTGGACACGTGTGTAC
TGGGTCACGTGTTATT
GATGGCACGTGAGTTA
TTTTTCACGTGGCGAT
CGGGTCACGTGATAAG

Relative binding free energy, 0.53 kcal/mol:
TGATTCACGTGAATAT

Relative binding free energy, -0.04 kcal/mol:
GGTTGCACGTGGTACT
GAACGCACGTGGTGGT
CGATACACGTGGTTGG

Relative binding free energy, 0.21 kcal/mol:
TTTATCACGTGATCGG
GATGTCACGTGGTATG
GGGGGCACGTGAATAG
TTTCTCACGTGTGCTG

Relative binding free energy, -0.03 kcal/mol:
TGGAACACGTGGGGGG
TGAGGCACGTGTATCG
TCAGGCACGTGTGGGG
CGGGTCACGTGGTACG
AGTGGCACGTGATTTA
AAATACACGTGTGTGG
GTAGGCACGTGGACTG
GTTACCACGTGGGCTG
TGGCGCACGTGTGTAT
TACGGCACGTGGATGA

Relative binding free energy, 0.32 kcal/mol:
AAGGTCACGTGAGAGT
GGGGTCACGTGAGTCG

Relative binding free energy, 0.3 kcal/mol:
GGTTTCACGTGTTGTA

Relative binding free energy, -0.21 kcal/mol:
TTCGCCACGTGGGTAG

Relative binding free energy, -0.25 kcal/mol:
GGGGGCACGTGCACGT

Relative binding free energy, 0.25 kcal/mol:
GTATTCACGTGCGGGC
GGCGGCACGTGGAAAT
ATATTCACGTGATTCG

Relative binding free energy, 0.27 kcal/mol:
GGGATCACGTGTGGTT
GAATACACGTGTGTAA
AGGTTCACGTGGTGGA

Relative binding free energy, 0.03 kcal/mol:
AGGTGCACGTGTTGGG
TTTGTCACGTGCATGG

Relative binding free energy, 0.31 kcal/mol:
CATTACACGTGTTGAG
GAATTCACGTGTTGTT
